# Experimental data published in the supplement of paper PMC8728848.
# The list shows a part of the results.
# B1: MPA (Maclura pomifera), P18674 (protein)
# chain: GVTFDDGAYTGIREINFEYNSETAIGGLRVTYDLNGMPFVAEDHKSFITGFKPVKISLEFPSEYIVEVSGYVGKVEGYTVIRSLTFKTNKQTYGPYGVTNGTPFSLPIENGLIVGFKGSIGYWLDYFSIYLSL
# What was measured:
# Assay in all cases: glycan array binding signal (z-score within array); higher = stronger binding
# Details in all cases: glycan notation: IUPAC condensed, linker removed
# [1] = molecular target: Fuc(a1-2)Gal
# Summary of the method: (§1)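 Glycan array data came from 3228 arrays in the Consortium for Functional Glycomics database, and only arrays with an available protein sequence were kept. Glycan names were put into IUPAC-condensed notation, and columns mapping to the same glycan were averaged. The binding signal is a within-array Z-score, averaged across arrays of one protein sequence run at different concentrations or buffers and across linkers. A negative Z-score can be read as non-binding.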
# [2] = molecular target: Fuc(a1-2)Gal(b1-3)GalNAc
# Summary of the method: as §1
# [3] = molecular target: Fuc(a1-2)Gal(b1-3)GalNAc(a1-3)[Fuc(a1-2)]Gal(b1-4)Glc
# Summary of the method: as §1
# [4] = molecular target: Fuc(a1-2)Gal(b1-3)GalNAc(a1-3)[Fuc(a1-2)]Gal(b1-4)GlcNAc
# Summary of the method: as §1
# [5] = molecular target: Fuc(a1-2)Gal(b1-3)GalNAc(b1-3)Gal
# Summary of the method: as §1
# [6] = molecular target: Fuc(a1-2)Gal(b1-3)GalNAc(b1-3)Gal(a1-4)Gal(b1-4)Glc
# Summary of the method: as §1
# [7] = molecular target: Fuc(a1-2)Gal(b1-3)GalNAc(b1-4)[Neu5Ac(a2-3)]Gal(b1-4)Glc
# Summary of the method: as §1
# [8] = molecular target: Fuc(a1-2)Gal(b1-3)GlcNAc
# Summary of the method: as §1
# [9] = molecular target: Fuc(a1-2)Gal(b1-3)GlcNAc(b1-2)Man(a1-3)[Fuc(a1-2)Gal(b1-3)GlcNAc(b1-2)Man(a1-6)]Man(b1-4)GlcNAc(b1-4)GlcNAc
# Summary of the method: as §1
# [10] = molecular target: Fuc(a1-2)Gal(b1-3)GlcNAc(b1-2)Man(a1-3)[Fuc(a1-2)Gal(b1-3)GlcNAc(b1-2)Man(a1-6)]Man(b1-4)GlcNAc(b1-4)[Fuc(a1-6)]GlcNAc
# Summary of the method: as §1
# [11] = molecular target: Fuc(a1-2)Gal(b1-3)GlcNAc(b1-3)Gal(b1-4)Glc
# Summary of the method: as §1
# [12] = molecular target: Fuc(a1-2)Gal(b1-3)GlcNAc(b1-3)GalNAc
# Summary of the method: as §1
# [13] = molecular target: Fuc(a1-2)Gal(b1-3)GlcNAc(b1-3)[Fuc(a1-2)Gal(b1-3)GlcNAc(b1-6)]GalNAc
# Summary of the method: as §1
# [14] = molecular target: Fuc(a1-2)Gal(b1-3)GlcNAc(b1-3)[Gal(b1-4)GlcNAc(b1-6)]Gal(b1-4)Glc
# Summary of the method: as §1
# [15] = molecular target: Fuc(a1-2)Gal(b1-3)GlcNAc(b1-3)[Neu5Ac(a2-6)Gal(b1-4)GlcNAc(b1-6)]Gal(b1-4)Glc
# Summary of the method: as §1
# [16] = molecular target: Fuc(a1-2)Gal(b1-3)GlcNAc6S
# Summary of the method: as §1
# [17] = molecular target: Fuc(a1-2)Gal(b1-3)[Fuc(a1-4)]GlcNAc
# Summary of the method: as §1
# [18] = molecular target: Fuc(a1-2)Gal(b1-3)[Fuc(a1-4)]GlcNAc(b1-2)Man(a1-3)[Fuc(a1-2)Gal(b1-3)[Fuc(a1-4)]GlcNAc(b1-2)Man(a1-3)]Man(b1-4)GlcNAc(b1-4)GlcNAc
# Summary of the method: as §1
# [19] = molecular target: Fuc(a1-2)Gal(b1-3)[Fuc(a1-4)]GlcNAc(b1-2)Man(a1-3)[Fuc(a1-2)Gal(b1-3)[Fuc(a1-4)]GlcNAc(b1-2)Man(a1-6)]Man(b1-4)GlcNAc(b1-4)[Fuc(a1-6)]GlcNAc(b1-4)[Fuc(a1-6)]GlcNAc
# Summary of the method: as §1
# [20] = molecular target: Fuc(a1-2)Gal(b1-3)[Fuc(a1-4)]GlcNAc(b1-3)[Fuc(a1-3)[Gal(b1-4)]GlcNAc(b1-6)]Gal(b1-4)Glc
# Summary of the method: as §1
# [21] = molecular target: Fuc(a1-2)Gal(b1-3)[Fuc(a1-4)]GlcNAc(b1-3)[Gal(b1-4)GlcNAc(b1-6)]Gal(b1-4)Glc
# Summary of the method: as §1
# [22] = molecular target: Fuc(a1-2)Gal(b1-4)Fuc(a1-3)]GlcNAc(b1-2)Man(a1-3)[Fuc(a1-2)Gal(b1-4)[Fuc(a1-3)]GlcNAc(b1-2)Man(a1-6)]Man(b1-4)GlcNAc(b1-4)GlcNAc
# Summary of the method: as §1
# [23] = molecular target: Fuc(a1-2)Gal(b1-4)Glc
# Summary of the method: as §1
# [24] = molecular target: Fuc(a1-2)Gal(b1-4)Glc6S
# Summary of the method: as §1
# [25] = molecular target: Fuc(a1-2)Gal(b1-4)GlcNAc
# Summary of the method: as §1
# [26] = molecular target: Fuc(a1-2)Gal(b1-4)GlcNAc(b1-2)Man
# Summary of the method: as §1
# [27] = molecular target: Fuc(a1-2)Gal(b1-4)GlcNAc(b1-2)Man(a1-3)[Fuc(a1-2)Gal(b1-4)GlcNAc(b1-2)Man(a1-6)]Man(b1-4)GlcNAc(b1-4)GlcNAc
# Summary of the method: as §1
# [28] = molecular target: Fuc(a1-2)Gal(b1-4)GlcNAc(b1-2)Man(a1-3)[Fuc(a1-2)Gal(b1-4)GlcNAc(b1-2)Man(a1-6)]Man(b1-4)GlcNAc(b1-4)[Fuc(a1-6)]GlcNAc
# Summary of the method: as §1
# [29] = molecular target: Fuc(a1-2)Gal(b1-4)GlcNAc(b1-2)[Fuc(a1-2)Gal(b1-4)GlcNAc(b1-4)]Man(a1-3)[Fuc(a1-2)Gal(b1-4)GlcNAc(b1-2)Man(a1-6)]Man(b1-4)GlcNAc(b1-4)GlcNAc
# Summary of the method: as §1
# [30] = molecular target: Fuc(a1-2)Gal(b1-4)GlcNAc(b1-3)Gal(b1-4)GlcNAc
# Summary of the method: as §1
binder,measurement,setting,value
B1,glycan array binding signal (z-score),[1],-0.172
same,glycan array binding signal (z-score),[2],-0.223
same,glycan array binding signal (z-score),[3],0.146
same,glycan array binding signal (z-score),[4],-0.211
same,glycan array binding signal (z-score),[5],-0.239
same,glycan array binding signal (z-score),[6],-0.152
same,glycan array binding signal (z-score),[7],-0.267
same,glycan array binding signal (z-score),[8],-0.228
same,glycan array binding signal (z-score),[9],0.333
same,glycan array binding signal (z-score),[10],-0.261
same,glycan array binding signal (z-score),[11],-0.242
same,glycan array binding signal (z-score),[12],-0.209
same,glycan array binding signal (z-score),[13],-0.043
same,glycan array binding signal (z-score),[14],-0.218
same,glycan array binding signal (z-score),[15],-0.157
same,glycan array binding signal (z-score),[16],-0.262
same,glycan array binding signal (z-score),[17],-0.187
same,glycan array binding signal (z-score),[18],1.31
same,glycan array binding signal (z-score),[19],-0.059
same,glycan array binding signal (z-score),[20],-0.28
same,glycan array binding signal (z-score),[21],-0.081
same,glycan array binding signal (z-score),[22],1.94
same,glycan array binding signal (z-score),[23],-0.172
same,glycan array binding signal (z-score),[24],-0.188
same,glycan array binding signal (z-score),[25],-0.164
same,glycan array binding signal (z-score),[26],-0.149
same,glycan array binding signal (z-score),[27],0.247
same,glycan array binding signal (z-score),[28],0.003
same,glycan array binding signal (z-score),[29],1.3
same,glycan array binding signal (z-score),[30],-0.271
